Measured values taken from PubChem BioAssay AID624296 (National Center for Advancing Translational Sciences (NCATS), 2012).
Out of some 350,000 compounds screened, about 9,900 (2.8%) were called active. The inconclusive results got no clear call from the source; some entries with a clear call stand among them for comparison. Calls come from the whole dose curve; as a rule, active = well fitted activation curve with a large enough effect; inconclusive = small, poorly fitted or top-dose-only effect; inactive = no such curve, though single readings can be large or run the other way. Potencies of inconclusive entries are left out as doubtful fits.

test: A quantitative high throughput screen for small molecules that induce DNA re-replication in MCF 10a normal breast cells.; note: nearly all actives have a fitted effect of over 50% in size; for activity, positive = re-replication: % of control where 0% means no effect; details: MCF 10A DNA re-replication, Hoechst nuclear intensity, 48 h; activity, positive = re-replication: at 46.1 µM (top of the series)
Potency is the fitted concentration of half-maximal effect; tags give direction and shape of the fitted curve.

Row | SMILES | Potency | activity, positive = re-replication
1 | CSc1nsc(/C=C/Nc2ccc(C)cc2)c1C#N | inconclusive [activator, partial curve, poor fit] | 
2 | Cn1c(=O)c([N+](=O)[O-])c(NCC(O)c2ccccc2)c2ccccc21 (stereo not drawn) | inconclusive [activator, single point] | 
3 | CCc1ccc(-c2cc(N)n(-c3ccccc3)n2)cc1 |  | inactive: -1.77%
4 | C/C(=N\NC(=O)c1c(Cl)c(C)nn1C)c1ccc(NC(=O)C2CCC2)cc1 | inconclusive [activator, partial curve, poor fit] | 
5 | C[n+]1ccc(/C=C/c2c[nH]c3ccc(F)cc23)cc1 | inconclusive [activator, partial curve, poor fit] | 
6 | CCN(C[C@H]1N[C@@](CC)(C(=O)OC)[C@H]2C(=O)N(C)C(=O)[C@@H]12)S(=O)(=O)c1ccc(F)cc1 |  | inactive: -8.11%
7 | Cc1ccc(C2=Nn3c(COc4ccc(Cl)cc4)nnc3SC2CC(=O)O)cc1 (stereo not drawn) |  | inactive: -0.211%
8 | COc1ccc(S(=O)(=O)N2CCCCC2)cc1NC(=O)c1ccc([N+](=O)[O-])o1 | active: 2.31 µM | 
9 | CCn1ccc(C(=O)N2CCOCC2)n1 | inconclusive [activator, full curve, poor fit] | 
10 | CC(C)(c1ccccc1)c1ccc(OCCCNCCO)cc1 | inconclusive [activator, full curve, poor fit] | 
11 | COc1cc(C(=O)Nc2sc3c(c2C#N)CCN(C(C)=O)C3)cc(OC)c1OC |  | inactive: 11.1%
12 | COc1ccc(CNC(=O)CSc2nc3c(oc4ccccc43)c(=O)n2CC2CCCO2)cc1 (stereo not drawn) |  | inactive: 15.3%
13 | Cc1cc(NC(=O)c2cc(-c3ccc(C)c(C)c3)nc3ccccc23)no1 |  | inactive: 7.8%
14 | CCN(CC)N=Nc1ccc(S(=O)(=O)Nc2nc(C)cc(C)n2)cc1 | inactive | 
15 | O=C(c1ccco1)N1CCN(C(c2ccccc2Cl)c2nnnn2Cc2ccco2)CC1 (stereo not drawn) | inconclusive [activator, single point] | 
16 | CCC1CCCCN1C(=O)CCCOc1ccccc1 (stereo not drawn) | inconclusive [activator, partial curve, poor fit] | 
17 | COc1ccc(NC2CCCN(Cc3cccc4cnccc34)C2)cc1 (stereo not drawn) |  | inactive: 6.05%
18 | COc1ccc([C@@H]2CC=C(C(=O)O)[C@H](c3cccc(Cl)c3)N2S(=O)(=O)c2ccc(C)cc2)cc1OC | inconclusive [activator, partial curve, poor fit] | 
19 | Cc1nn(C(=O)c2cccs2)c(C)c1CN1C(=O)c2ccccc2C1=O | inconclusive [activator, single point] | 
20 | CC1=C(C(=O)OCc2ccccc2)C(c2ccc(Cl)cc2Cl)NC(=O)N1CCCC(=O)O (stereo not drawn) |  | inactive: 0.132%
21 | O=C(CCC(=O)c1cccs1)NCc1ccncc1 | inconclusive [activator, partial curve, poor fit] | 
22 | COCCN(C(=O)CSc1nnc(-c2ccc(C(C)(C)C)cc2)n1N)c1c(N)n(CC(C)C)c(=O)[nH]c1=O | inconclusive [activator, single point] | 

Row | SMILES | Potency | activity, positive = re-replication
23 | COc1cc(C(=O)N/N=C/c2ccc(OC)c(CN3CCN(c4ccc(F)cc4)CC3)c2)ccc1O | inconclusive [activator, single point] | 
24 | Cc1ccc(NC(=S)N/N=C2/CCCCc3ccccc32)cc1 | inconclusive [activator, full curve, poor fit] | 
25 | S=c1[nH]nc(-c2cccnc2)n1/N=C/C(Cl)=C\c1ccccc1 | active: 13 µM | 
26 | Cc1cccc(OCC(=O)N/N=C/c2sc(=O)n(Cc3cccc(C(=O)O)c3)c2Cl)c1 | inconclusive [activator, single point] | 
27 | Cc1ccc(-n2nc(C)cc2N)c(C)c1 |  | inactive: -5.06%
28 | CC(C)(CNC(=O)c1ccc([N+](=O)[O-])c(Cl)c1)CNC(=O)c1ccc([N+](=O)[O-])c(Cl)c1 | inconclusive [activator, single point] | 
29 | CN(C)S(=O)(=O)c1ccc(C(=O)Nc2nnc(Cc3ccccc3)s2)cc1 | inconclusive [activator, partial curve, poor fit] | 
30 | CC(C)(C)CC(C)(C)c1ccc(O)c(-n2nc3ccccc3n2)c1 | active: 26.6 µM | 
31 | CCCn1c(N)c(N(CCOC)C(=O)c2ccc(Cl)c([N+](=O)[O-])c2)c(=O)[nH]c1=O | inconclusive [activator, partial curve, poor fit] | 
32 | CCOC(=O)c1c(-c2cccc([N+](=O)[O-])c2)csc1NC(=O)C1CC1 | inconclusive [activator, partial curve] | 
33 | COc1ccc(NC(=S)NCc2ccc(F)cc2)c(OC)c1 |  | inactive: 2.12%
34 | CCn1nc(C(=O)Nc2ccc(N3CCOCC3)cc2)c2ccccc2c1=O |  | inactive: 3.71%
35 | CCOc1cc(CNC(CC)CO)ccc1OCC(=O)Nc1cccc(C(F)(F)F)c1 (stereo not drawn) | inconclusive [activator, partial curve, poor fit] | 
36 | CCc1ccc(OCC2c3cc(OC)c(OC)cc3CCN2C(C)=O)cc1 (stereo not drawn) | inconclusive [activator, partial curve, poor fit] | 
37 | C=CC(=O)N1C/C(=C/c2ccc(F)cc2)C(=O)/C(=C\c2ccc(F)cc2)C1 | inconclusive [activator, full curve, poor fit] | 
38 | CC(C)(C)c1nnc(N/N=C/c2cc(Br)ccc2O)n(N)c1=O | inconclusive [activator, partial curve] | 
39 | Cc1c(-n2c(=S)[nH]c3ccccc3c2=O)c(=O)n(-c2ccccc2)n1C |  | inactive: 9.9%
40 | CC1COc2ccccc2N1S(=O)(=O)c1ccc(Cl)cc1 (stereo not drawn) | active: 20.6 µM | 
41 | CN1C/C(=C/c2ccncc2)C(=O)/C(=C/c2ccncc2)C1 | inconclusive [activator, single point] | 
42 | CC1CCCCN1CC(=O)Nc1ccc(Oc2ccccc2)cc1 (stereo not drawn) | inconclusive [activator, single point] | 
43 | CCOC(=O)c1sc(NC(=O)CSc2nc(C)cc(C)c2C#N)c(C#N)c1C | active: 2 µM | 
